Reference: PubChem BioAssay AID488969 (Vanderbilt High Throughput Screening Facility, 2010)
Over roughly 110,000 compounds, “z-score” has its median near -0.1; the highest 2% begin near 2. The list shows a part of the results.

Each molecule was assayed against Metabotropic glutamate receptor 8 (Rattus norvegicus) (UniProt P70579) (assay: rat mGluR8 modulators via GIRK flux, primary screen, cell-based, thallium flux, HTS (AID 488969)). Conditions: HEK293 rat mGluR8, GIRK (G protein-gated inwardly rectifying potassium channel) thallium flux, FluoZin2; at 10 µM; stronger effect = higher value; submaximal glutamate (EC20) added with thallium.
Chain of UniProt P70579 (P70579 whole entry, looked up): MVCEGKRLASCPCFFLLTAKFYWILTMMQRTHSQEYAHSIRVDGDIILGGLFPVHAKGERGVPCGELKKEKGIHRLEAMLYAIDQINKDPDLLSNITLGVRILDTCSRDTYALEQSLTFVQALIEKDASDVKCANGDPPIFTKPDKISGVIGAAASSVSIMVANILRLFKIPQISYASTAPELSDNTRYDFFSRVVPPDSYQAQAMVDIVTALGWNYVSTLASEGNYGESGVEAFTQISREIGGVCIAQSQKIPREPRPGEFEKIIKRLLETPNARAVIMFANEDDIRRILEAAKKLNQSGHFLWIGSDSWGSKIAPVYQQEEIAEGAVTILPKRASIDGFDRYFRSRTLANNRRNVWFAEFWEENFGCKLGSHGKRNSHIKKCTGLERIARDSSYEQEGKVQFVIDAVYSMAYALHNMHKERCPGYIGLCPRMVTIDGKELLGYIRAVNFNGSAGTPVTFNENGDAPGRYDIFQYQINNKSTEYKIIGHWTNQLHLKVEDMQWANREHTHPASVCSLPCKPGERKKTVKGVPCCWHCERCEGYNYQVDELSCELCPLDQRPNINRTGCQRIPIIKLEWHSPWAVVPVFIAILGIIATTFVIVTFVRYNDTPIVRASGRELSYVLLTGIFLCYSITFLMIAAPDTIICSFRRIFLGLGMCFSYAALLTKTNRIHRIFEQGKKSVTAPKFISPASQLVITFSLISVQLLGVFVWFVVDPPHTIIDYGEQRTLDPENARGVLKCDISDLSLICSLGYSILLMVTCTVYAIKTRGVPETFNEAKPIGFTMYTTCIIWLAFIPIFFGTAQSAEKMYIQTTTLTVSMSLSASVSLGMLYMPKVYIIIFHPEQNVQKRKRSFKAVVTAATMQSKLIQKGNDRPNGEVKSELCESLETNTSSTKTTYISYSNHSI
Molecule `CCOC(=O)c1sc(=S)n(C)c1NC(=O)c1ccccc1Cl` has a z-score of -0.226. Molecule `O=C(NCC(c1cccs1)N1CCOCC1)c1ccccc1NS(=O)(=O)c1cc([N+](=O)[O-])ccc1Cl` (stereo not given) has a z-score of -0.0115. `O=C1c2ccccc2C(=O)N1CN(C(=O)COc1ccccc1)c1ccc(F)cc1` showed a z-score of -0.105. `CCOC(=O)c1nn(-c2cc(C(=O)OC)cc(C(=O)OC)c2)cc1O` showed a z-score of 0.745. With `O=C(O)C1CC=CCC1C(=O)Nc1ccc(F)c(F)c1` (stereo not given) the z-score was -0.812. `Cc1cc2nnc(SCC(=O)Nc3cccc(S(=O)(=O)N4CCOCC4)c3)n2c2ccccc12` showed a z-score of 0.339. Molecule `CC(Oc1ccc(Cl)cc1)C(=O)NCCCn1ccnc1` (stereo not given) has a z-score of 0.246. `O=C(N/N=C/c1ccc([N+](=O)[O-])s1)C(O)c1ccccc1` (stereo not given) gave a z-score of -0.341. Work on `COc1ccc(NS(=O)(=O)c2ccc(N/N=C(\C)c3ccncc3)c([N+](=O)[O-])c2)cc1` yielded a z-score of -0.275. Molecule `C=CCn1c(NC(=O)c2ccc(Br)o2)c(C(=O)OCC)sc1=S` has a z-score of 1.27. `COc1cc(OC)cc(C(=O)NC2CCN(Cc3nnnn3Cc3cccs3)CC2)c1` was tested, and the z-score was -0.489. Molecule `CCOC(=O)CSc1nnc(-c2ccncc2)o1` has a z-score of 0.0058. `O=C(NCCCn1ccnc1)c1cc2nc(-c3ccc(Br)cc3)cc(C(F)(F)F)n2n1` showed a z-score of -0.126. For `COc1ccc(Cn2c(C)c(C)c(C#N)c2NC(=O)Nc2ccccc2)cc1`, the z-score was 0.0736. `Fc1cccc(-c2nn[nH]n2)c1` was tested, and the z-score was -0.236. Work on `CCN(CC)CC(=O)c1ccc(-c2ccccc2)cc1` yielded a z-score of 0.293. In the case of `COc1ccc(OCc2nnnn2-c2ccccc2)cc1`, the z-score is reported as 0.144. `Cc1ccc2nc3c(cc2c1)c(NS(=O)(=O)c1ccccc1)nn3CC(C)C` gave a z-score of -0.165. With `O=C(COc1ccc(S(=O)(=O)NC2CCCCC2)cc1)NCCC1=CCCCC1` the z-score was 0.0563. `CCOC(=O)Cc1csc(NC(=O)c2ccc3c(c2)OCO3)n1` was tested, and the z-score was -0.00374. Molecule `CCCCc1sc(-c2c(C#N)c(N)nc3c2CCCCC3)cc1[N+](=O)[O-]` has a z-score of 0.124. Molecule `Cc1ccc(CNC(=O)c2oc3ccc(S(=O)(=O)N4CCOCC4)cc3c2C)cc1` has a z-score of -0.153. `CC(=O)Nc1nonc1NC(=O)c1ccc(F)cc1` gave a z-score of 0.0895. Molecule `O=C1CN(C(=O)COC(=O)C23CC4CC(CC(O)(C4)C2)C3)c2ccccc2N1` has a z-score of 0.67. In the case of `Cc1cccc(-c2c3c(=O)n(C)c(=O)n(C)c3cn2CC2CCCO2)c1` (stereo not given), the z-score is reported as 0.462. For `COc1ccc(N=Cc2sc(O)c3ccccc23)cc1`, the z-score was -0.252. `COc1ccc(C(c2nnnn2C2CCCC2)N2CCN(C3CCCC3)CC2)cc1OC` (stereo not given) showed a z-score of -0.309. Molecule `CC(C)Cn1nc(NC(=O)C2CCCO2)c2cc3ccccc3nc21` (stereo not given) has a z-score of -1.57. With `COC(=O)/C(=C(/F)Sc1cc(C)c(O)c(C)c1)C(F)(F)F` the z-score was 0.715. In the case of `Cc1occc1C(=O)NNC(=O)NC12CC3CC(CC(C3)C1)C2`, the z-score is reported as -0.244.
